{
  "source": "PubChem BioAssay AID504332",
  "about": "(National Center for Advancing Translational Sciences (NCATS), 2011)",
  "note": "Hit rate of the full screen: of about 350,000 compounds, about 31,000 (8.9%) were called active. Inconclusive means that the source gave no clear call. Such entries were picked first, then a sample of the others. Calls follow the shape of the dose curve; as a rule, active = well fitted inhibition curve with a large enough effect; inconclusive = small, poorly fitted or top-dose-only effect; inactive = no such curve, though single readings can be large or run the other way. Where the call is inconclusive, the potency comes from a doubtful curve fit. % is scaled to controls: 0 for no effect and ±100 for the full control effect; potency is read from the fitted curve at half-maximal effect; tags tell the direction and shape of the fitted curve.",
  "data": [
    {"target": "Histone-lysine N-methyltransferase EHMT2 (Homo sapiens) (UniProt Q96KQ7)", "sequence (Q96KQ7 whole entry, looked up)": "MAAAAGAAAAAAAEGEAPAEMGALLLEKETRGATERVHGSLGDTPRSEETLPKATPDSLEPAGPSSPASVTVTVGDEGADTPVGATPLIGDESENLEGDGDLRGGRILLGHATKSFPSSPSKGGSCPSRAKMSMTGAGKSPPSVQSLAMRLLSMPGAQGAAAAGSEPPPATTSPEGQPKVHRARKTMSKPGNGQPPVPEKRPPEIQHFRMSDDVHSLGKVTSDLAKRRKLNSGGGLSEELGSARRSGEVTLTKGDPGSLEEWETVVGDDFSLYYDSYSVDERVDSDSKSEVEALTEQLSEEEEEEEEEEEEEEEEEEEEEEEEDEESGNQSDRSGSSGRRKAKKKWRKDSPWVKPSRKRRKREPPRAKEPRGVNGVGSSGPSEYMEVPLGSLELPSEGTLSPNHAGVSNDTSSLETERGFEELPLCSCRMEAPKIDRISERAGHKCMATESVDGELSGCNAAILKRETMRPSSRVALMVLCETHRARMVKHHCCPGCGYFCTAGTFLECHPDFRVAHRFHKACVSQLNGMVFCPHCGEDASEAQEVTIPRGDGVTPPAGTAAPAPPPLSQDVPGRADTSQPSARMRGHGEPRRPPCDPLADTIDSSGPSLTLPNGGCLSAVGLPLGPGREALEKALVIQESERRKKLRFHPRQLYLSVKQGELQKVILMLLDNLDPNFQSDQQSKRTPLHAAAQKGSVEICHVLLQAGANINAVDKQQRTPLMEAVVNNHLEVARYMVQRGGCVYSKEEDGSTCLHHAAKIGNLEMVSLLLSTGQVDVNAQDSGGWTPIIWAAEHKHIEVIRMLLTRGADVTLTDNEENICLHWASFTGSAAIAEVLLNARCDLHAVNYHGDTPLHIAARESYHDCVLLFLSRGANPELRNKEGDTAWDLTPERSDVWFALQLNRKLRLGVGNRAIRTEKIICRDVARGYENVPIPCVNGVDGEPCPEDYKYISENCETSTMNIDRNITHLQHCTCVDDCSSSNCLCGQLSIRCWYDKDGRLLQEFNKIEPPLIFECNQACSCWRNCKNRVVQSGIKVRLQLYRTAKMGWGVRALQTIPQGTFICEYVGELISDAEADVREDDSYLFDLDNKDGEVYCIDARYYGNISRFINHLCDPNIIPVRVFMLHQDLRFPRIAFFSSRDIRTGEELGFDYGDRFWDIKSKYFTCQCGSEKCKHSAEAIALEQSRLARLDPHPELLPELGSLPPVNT", "test": "qHTS Assay for Inhibitors of Histone Lysine Methyltransferase G9a; also: nearly all actives have a fitted effect of over 75% in size", "settings": "G9a H3K9 monomethylation, AlphaScreen, 2 h; activity, negative = inhibition: at 59 µM (top of the series) unless noted", "summary_of_the_method": "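Enzyme 20 nM + cpd, 15 min RT; add b-H3K9 pep 500 nM / SAM 20 uM; 2 h RT; anti-H3K9me1 Ab 0.5 ug/mL + SA donor / anti-rabbit acceptor beads 20 ug/mL each, 10 min; AlphaScreen read.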", "values": [
      {"smiles": "Cc1nc2ccccc2c(=O)n1NC(=O)COc1ccccc1", "activity, negative = inhibition": "inactive: -42.7% [at 12.7 µM]"},
      {"smiles": "Cc1ccc(C)c(S(=O)(=O)N2CCN(C(=O)c3cccn3C)CC2)c1", "Potency": "inconclusive: 89.1 µM [inhibitor, partial curve, poor fit]"},
      {"smiles": "O=C1NC(=O)C(CC(=O)N(Cc2ccco2)C2(C(=O)NC3CCCCC3)CCCCC2)N1", "note": "(stereo not drawn)", "Potency": "inconclusive: 79.4 µM [inhibitor, single point]"},
      {"smiles": "Cc1ccc(-n2ccnc(NCCc3ccc(S(N)(=O)=O)cc3)c2=O)c(C)c1", "Potency": "inconclusive: 39.8 µM [inhibitor, partial curve, poor fit]"},
      {"smiles": "O=C(O)c1ccccc1-c1ccccc1C(=O)Nc1ccc(-c2nc3cc(Cl)ccc3o2)cc1", "Potency": "inactive"},
      {"smiles": "COc1ccc2[nH]c3c(=O)n(CCCCC(=O)NCCN4CCCC4)c(=S)[nH]c3c2c1", "Potency": "inconclusive: 35.5 µM [inhibitor, single point]"},
      {"smiles": "COc1ccccc1OCCNc1cc(N2CCCCC2)ccc1[N+](=O)[O-]", "Potency": "inconclusive: 20 µM [inhibitor, single point]"},
      {"smiles": "COc1ccc(Cl)cc1NC(=O)CN(C)C(=O)c1cccc(-n2cnnn2)c1", "activity, negative = inhibition": "inactive: -1.91% [at 2.33 µM]"},
      {"smiles": "NC(=O)NC(=O)COC(=O)c1sc2ccccc2c1Cl", "Potency": "inactive"},
      {"smiles": "COc1cc(C(=O)N2CCN(Cc3ccccc3C(F)(F)F)CC2)cc(OC)c1OC", "activity, negative = inhibition": "inconclusive: -92.3% [inhibitor] [at 12.7 µM]"},
      {"smiles": "O=C(COc1ccccc1F)N1CCN(S(=O)(=O)/C=C/c2ccccc2)CC1", "Potency": "active: 44.7 µM"},
      {"smiles": "COc1ccc(C(=O)NNC(=O)CCC(=O)NNC(=O)c2ccc(OC)cc2)cc1", "Potency": "active: 7.94 µM"},
      {"smiles": "Cc1ccc(S(=O)(=O)c2c(C)nn(C(C)(C)C)c2OC(=O)CC(C)C)cc1", "Potency": "inactive"},
      {"smiles": "O=C(CCCN1C(=O)/C(=C/c2ccccc2)SC1=S)Nc1ccc(C(=O)O)c(O)c1", "Potency": "inconclusive: 17.8 µM [inhibitor, full curve]"},
      {"smiles": "Cc1oc(-c2ccc(C(=O)NCc3ccc(F)cc3)cc2)nc1CS(=O)c1ccccc1", "note": "(stereo not drawn)", "Potency": "inconclusive: 5.01 µM [inhibitor, full curve, poor fit]"},
      {"smiles": "CCN(CC)CCNC(=O)c1ccc(-c2nc(CS(=O)(=O)c3ccc(C)cc3)c(C)o2)cc1", "Potency": "inconclusive: 5.01 µM [inhibitor, partial curve, poor fit]"},
      {"smiles": "CC(C)(C)NC(=O)C1CN(S(=O)(=O)c2ccccc2)CCN1S(=O)(=O)c1ccccc1", "note": "(stereo not drawn)", "Potency": "inconclusive: 89.1 µM [inhibitor, single point]"},
      {"smiles": "O=C(CSc1cccc2cccnc12)N/N=C/c1cccnc1", "Potency": "inconclusive: 1 µM [inhibitor, full curve, poor fit]"},
      {"smiles": "COc1ccccc1OCCn1c(C(C)Oc2ccccc2)nc2ccccc21", "note": "(stereo not drawn)", "Potency": "inconclusive: 0.158 µM [inhibitor, partial curve, poor fit]"},
      {"smiles": "Cc1cc(C)c(OCC(=O)Nc2nc(-c3ccccn3)cs2)c(C)c1", "Potency": "active: 44.7 µM"},
      {"smiles": "Cc1nc(CN2CCN(C(=O)c3ccc(Br)cc3)CC2)cs1", "Potency": "inconclusive: 2.24 µM [inhibitor, partial curve, poor fit]"},
      {"smiles": "COC(=O)c1cn(NC(=O)c2cnccn2)c(=O)c2ccccc12", "Potency": "inconclusive: 0.708 µM [inhibitor, full curve, poor fit]"},
      {"smiles": "COc1ccc(NC(=O)CSc2nnc(Cc3cccn3C)n2CCc2ccccc2)cc1OC", "Potency": "active: 39.8 µM"},
      {"smiles": "CCOc1ccccc1NC(=O)COC(=O)C1CC(=O)N(c2c(C)cccc2C)C1", "note": "(stereo not drawn)", "Potency": "active: 56.2 µM"},
      {"smiles": "O=C(NCCc1c[nH]c2ccccc12)OCCCCOC(=O)NCCc1c[nH]c2ccccc12", "activity, negative = inhibition": "inactive: 7.85% [at 2.33 µM]"},
      {"smiles": "Cc1ccc(S(=O)(=O)NC(=O)c2ccc(-c3ccc(C)c4ccccc34)o2)cc1", "Potency": "active: 50.1 µM"},
      {"smiles": "CN1/C(=C/C2CC(=O)N(c3ccc([N+](=O)[O-])cc3)C2=O)C(C)(C)c2ccccc21", "note": "(stereo not drawn)", "Potency": "inconclusive: 5.62 µM [inhibitor, single point]"},
      {"smiles": "Cc1oc(C(=O)O)cc1COc1ccc2c3c(c(=O)oc2c1)CCC3", "Potency": "inconclusive: 56.2 µM [inhibitor, partial curve, poor fit]"},
      {"smiles": "COCCN(C(=O)COC(=O)/C=C/c1ccccc1Cl)c1c(N)n(Cc2ccccc2)c(=O)[nH]c1=O", "Potency": "inconclusive: 89.1 µM [inhibitor, single point]"},
      {"smiles": "Cc1ccc(C(=O)Nc2nc3nc(C)cc(=O)n3[nH]2)cc1", "Potency": "inactive"},
      {"smiles": "CCN(C(=O)CSc1ncn[nH]1)c1cccc2ccccc12", "Potency": "active: 22.4 µM"},
      {"smiles": "CCOc1ccc(-c2nc(CNC(=O)NC3CCCCC3)c(C)o2)cc1", "Potency": "inactive"},
      {"smiles": "CCN(CC)CCNc1ncnc2c1cnn2-c1cc(Cl)ccc1C", "Potency": "inactive"},
      {"smiles": "O=C(Oc1cc(Cl)ccc1Cl)c1ccc(N2CCOCC2)c([N+](=O)[O-])c1", "Potency": "inconclusive: 25.1 µM [inhibitor, partial curve, poor fit]"},
      {"smiles": "COc1ccc(/C=N/NS(=O)(=O)c2ccc(F)cc2)cc1CN1CCSCC1", "Potency": "inconclusive: 79.4 µM [inhibitor, single point]"},
      {"smiles": "COc1ccc(CC2SC(=Nc3ccc(F)cc3)NC2=O)cc1", "note": "(stereo not drawn)", "Potency": "active: 56.2 µM"},
      {"smiles": "Cc1ccc(N2CC(C(=O)NCCS(=O)(=O)N3CCN(c4ccccc4)CC3)CC2=O)cc1C", "note": "(stereo not drawn)", "Potency": "inactive"},
      {"smiles": "O=C(Nc1ccc2nc(-c3cccs3)[nH]c2c1)c1ccco1", "Potency": "inconclusive: 39.8 µM [inhibitor, single point]"},
      {"smiles": "Cc1cc2c(C)c(C)c(=O)[nH]c2cc1N", "Potency": "inconclusive: 0.158 µM [inhibitor, full curve, poor fit]"},
      {"smiles": "COc1ccc(S(=O)(=O)N(Cc2ccccc2)c2ccccc2C(=O)Nc2ccccc2C(=O)NCc2ccco2)cc1", "Potency": "inactive"},
      {"smiles": "CCOC(=O)c1cnc2ccccc2c1Nc1cccc(C(=O)O)c1", "Potency": "inconclusive: 56.2 µM [inhibitor, partial curve, poor fit]"},
      {"smiles": "CNC(=O)c1c(NC(=O)c2ccc(N3C(=O)CCC3=O)cc2)sc2c1CCCC2", "Potency": "inconclusive: 79.4 µM [inhibitor, single point]"},
      {"smiles": "NC[C@@H]1O[C@@H](O[C@H]2[C@H](O)[C@@H](O[C@@H]3O[C@@H](CO)[C@H](O)[C@@H](N)[C@@H]3O)[C@H](N)C[C@@H]2N)[C@@H](O)[C@H](O)[C@H]1O", "Potency": "inactive"},
      {"smiles": "CCOC(=O)C1CCCN(C(=O)Cn2nc(Cc3cccnc3)c3ccccc3c2=O)C1", "note": "(stereo not drawn)", "Potency": "inconclusive: 89.1 µM [inhibitor, partial curve, poor fit]"},
      {"smiles": "CCOc1ccccc1C(=O)Nc1cccc2ccc(C)nc12", "Potency": "inactive"},
      {"smiles": "N=C1C(c2nc3ccccc3c(=O)[nH]2)=C(O)CN1CCc1ccccc1", "Potency": "inconclusive: 89.1 µM [inhibitor, single point]"},
      {"smiles": "O=C(c1ccccc1)C1CN(Cc2ccccc2)CCC1(O)c1ccccc1", "note": "(stereo not drawn)", "Potency": "inconclusive: 50.1 µM [inhibitor, partial curve, poor fit]"},
      {"smiles": "COc1ccc(N2CCN(C(=O)COc3ccc(S(=O)(=O)N4CCOCC4)cc3C)CC2)cc1", "Potency": "inconclusive: 89.1 µM [inhibitor, single point]"},
      {"smiles": "CCNc1ncc2nc(-c3cn(C)c4ccccc34)c(=O)n(C[C@H]3CCCO3)c2n1", "activity, negative = inhibition": "inactive: 3.99% [at 0.501 µM]"},
      {"smiles": "O=C(CN1CCc2ccccc21)NC(=O)NC1CCCCC1", "activity, negative = inhibition": "inconclusive: -91.4% [inhibitor]"},
      {"smiles": "O=C(Nc1ccc(N2CCN(c3ccc(C(F)(F)F)cn3)CC2)nc1)c1cccs1", "Potency": "inconclusive: 50.1 µM [inhibitor, partial curve]"},
      {"smiles": "c1ccc(C2=Nc3ccccc3NC(c3ccccc3)C2)cc1", "note": "(stereo not drawn)", "Potency": "active: 35.5 µM"},
      {"smiles": "COc1cccc(CNC(=O)CSc2nc(=O)[nH]c3c2CCC3)c1", "Potency": "inactive"},
      {"smiles": "COc1ccccc1-c1nnc(C2CCN(C(=O)c3cccc(Cl)c3)CC2)o1", "Potency": "inactive"},
      {"smiles": "Clc1ccc(C[n+]2cc(-c3ccccc3)n3c2CCCCC3)c(Cl)c1", "activity, negative = inhibition": "inactive: 27.4% [at 12.7 µM]"},
      {"smiles": "COc1cc(C2CC(=O)c3c([nH]c(C(=O)OCc4ccc(C)cc4)c3C)C2)cc(OC)c1OC", "note": "(stereo not drawn)", "Potency": "inactive"},
      {"smiles": "COc1cc2c(cc1OC)[C@H](C)N(C(=S)Nc1ccc(F)cc1)CC2", "Potency": "inconclusive: 79.4 µM [inhibitor, partial curve, poor fit]"},
      {"smiles": "Cc1cc(C)nc(Nc2ccc(N3CCCC3)cc2)n1", "Potency": "inconclusive: 1.58 µM [inhibitor, single point]"},
      {"smiles": "COc1ccc(/C=C/C(=O)NCc2cccnc2)cc1", "Potency": "inactive"},
      {"smiles": "O=C(NCc1ccccc1)c1ccc(OC2CSC2)cc1", "Potency": "inconclusive: 15.8 µM [inhibitor, partial curve, poor fit]"},
      {"smiles": "O=C(c1cnc2sccn2c1=O)N1CCCc2ccccc21", "Potency": "inconclusive: 39.8 µM [inhibitor, partial curve, poor fit]"},
      {"smiles": "CCOC(=O)C1CCCN(Cc2ccccc2OCC)C1", "note": "(stereo not drawn)", "Potency": "inconclusive: 3.98 µM [inhibitor, single point]"},
      {"smiles": "CCS(=O)(=O)N1CCc2cc(C(=O)NCc3ccc(Cl)cc3)ccc21", "Potency": "inactive"},
      {"smiles": "COc1ccc2[nH]c(C)c(C(=O)CN(C)C)c2c1", "activity, negative = inhibition": "inactive: -3.37% [at 2.33 µM]"},
      {"smiles": "COc1cccc(-n2ccnc2SCC(=O)Nc2cc(OC)ccc2OC)c1", "Potency": "inconclusive: 39.8 µM [inhibitor, partial curve, poor fit]"},
      {"smiles": "CCOC(=O)C1CCCN(C(=O)c2cc(S(=O)(=O)N(C)C)ccc2N2CCCC2)C1", "note": "(stereo not drawn)", "Potency": "inactive"},
      {"smiles": "CSc1ccc(-c2sc(Nc3ccccc3)n[n+]2-c2ccc(F)cc2)cc1", "Potency": "active: 50.1 µM"},
      {"smiles": "CC(=O)Nc1ccc(S[C@@H](CCN2CC[C@H](C(C)(C)C)CCC2=O)c2ccccc2)cc1", "activity, negative = inhibition": "inconclusive: -95% [inhibitor] [at 2.33 µM]"}
    ]}
  ]
}
